{"source": "the antibiotic and cytotoxicity screens of Wong et al. (2023)", "key": {"HSkMC": {"system": "HSkMC", "test": "cytotoxicity call (relative viability < 0.9)", "settings": "10 µM"}, "HepG2": {"system": "HepG2", "test": "cytotoxicity call (relative viability < 0.9)", "settings": "10 µM"}, "S. aureus RN4220": {"system": "S. aureus RN4220", "test": "growth inhibition call (relative growth <= 0.2)", "settings": "50 µM"}}, "note": "This is one part of the list.", "data": [{"smiles": "O=C(C[C@@H]1C[C@@H]2c3cc(NS(=O)(=O)c4ccc(F)cc4)ccc3O[C@@H]2[C@H](CO)O1)NCc1cccnc1", "values": [{"measurement": "cytotoxicity call", "setting": "HSkMC", "value": "inactive"}, {"measurement": "cytotoxicity call", "setting": "HepG2", "value": "inactive"}, {"measurement": "growth inhibition call", "setting": "S. aureus RN4220", "value": "inactive"}]}, {"smiles": "O=C(C[C@H]1CC[C@H]2[C@@H](COC[C@H](O)CN2S(=O)(=O)c2ccc(Cl)cc2)O1)NCCN1CCCCC1", "values": [{"measurement": "cytotoxicity call", "setting": "HSkMC", "value": "inactive"}, {"measurement": "cytotoxicity call", "setting": "HepG2", "value": "inactive"}, {"measurement": "growth inhibition call", "setting": "S. aureus RN4220", "value": "inactive"}]}, {"smiles": "Cn1c(=O)[nH]c(=O)c2c1ncn2CCNCc1ccco1", "values": [{"measurement": "cytotoxicity call", "setting": "HSkMC", "value": "inactive"}, {"measurement": "cytotoxicity call", "setting": "HepG2", "value": "inactive"}, {"measurement": "growth inhibition call", "setting": "S. aureus RN4220", "value": "inactive"}]}, {"smiles": "CC(C)CCCC(C)C1CCC2C3CC=C4CC(=O)CCC4(C)C3CCC12C", "note": "(stereo unspecified)", "values": [{"measurement": "cytotoxicity call", "setting": "HSkMC", "value": "inactive"}, {"measurement": "cytotoxicity call", "setting": "HepG2", "value": "inactive"}, {"measurement": "growth inhibition call", "setting": "S. aureus RN4220", "value": "inactive"}]}, {"smiles": "CNC[C@@H]1Oc2ccc(NS(=O)(=O)c3cn(C)cn3)cc2C(=O)N([C@@H](C)CO)C[C@@H]1C", "values": [{"measurement": "cytotoxicity call", "setting": "HSkMC", "value": "inactive"}, {"measurement": "cytotoxicity call", "setting": "HepG2", "value": "inactive"}, {"measurement": "growth inhibition call", "setting": "S. aureus RN4220", "value": "inactive"}]}, {"smiles": "COc1ccc([Si](C)(C)[C@H]2[C@H](CC(=O)N3CCC[C@H]3CO)O[C@@]3(C(=O)N(Cc4ccc(N5CCCCC5=O)cc4)c4ccccc43)[C@@H]2C)cc1", "values": [{"measurement": "cytotoxicity call", "setting": "HSkMC", "value": "inactive"}, {"measurement": "cytotoxicity call", "setting": "HepG2", "value": "inactive"}, {"measurement": "growth inhibition call", "setting": "S. aureus RN4220", "value": "inactive"}]}, {"smiles": "COC(=O)c1c2oc(c1C(=O)OC)C(=O)N[C@@H](Cc1ccccc1)Cn1cc(nn1)[C@@H](Cc1ccccc1)NC(=O)N[C@H](COC(=O)NCCCCCC(=O)NO)CC2", "values": [{"measurement": "cytotoxicity call", "setting": "HSkMC", "value": "inactive"}, {"measurement": "cytotoxicity call", "setting": "HepG2", "value": "inactive"}, {"measurement": "growth inhibition call", "setting": "S. aureus RN4220", "value": "inactive"}]}, {"smiles": "C[C@H](CO)N1C[C@H](C)[C@@H](CN(C)CC2CCCCC2)Oc2ccc(NC(=O)Cn3cnnn3)cc2CC1=O", "values": [{"measurement": "cytotoxicity call", "setting": "HSkMC", "value": "inactive"}, {"measurement": "cytotoxicity call", "setting": "HepG2", "value": "inactive"}, {"measurement": "growth inhibition call", "setting": "S. aureus RN4220", "value": "inactive"}]}, {"smiles": "Cc1ccc(N(c2ccc(C)cc2)c2cccnc2)cc1", "values": [{"measurement": "cytotoxicity call", "setting": "HSkMC", "value": "inactive"}, {"measurement": "cytotoxicity call", "setting": "HepG2", "value": "inactive"}, {"measurement": "growth inhibition call", "setting": "S. aureus RN4220", "value": "active"}]}, {"smiles": "Cc1noc(C)c1S(=O)(=O)Nc1ccc2c(c1)CC(=O)N([C@H](C)CO)C[C@H](C)[C@H](CN(C)Cc1ccc(Oc3ccccc3)cc1)O2", "values": [{"measurement": "cytotoxicity call", "setting": "HSkMC", "value": "inactive"}, {"measurement": "cytotoxicity call", "setting": "HepG2", "value": "inactive"}, {"measurement": "growth inhibition call", "setting": "S. aureus RN4220", "value": "inactive"}]}, {"smiles": "Cc1cc(N)[nH]n1", "values": [{"measurement": "cytotoxicity call", "setting": "HSkMC", "value": "inactive"}, {"measurement": "cytotoxicity call", "setting": "HepG2", "value": "inactive"}, {"measurement": "growth inhibition call", "setting": "S. aureus RN4220", "value": "inactive"}]}, {"smiles": "C[C@@H]1CN([C@H](C)CO)C(=O)c2cc(NC(=O)NC3CCCCC3)ccc2O[C@@H](C)CCCCO[C@H]1CN(C)S(=O)(=O)c1ccccc1", "values": [{"measurement": "cytotoxicity call", "setting": "HSkMC", "value": "inactive"}, {"measurement": "cytotoxicity call", "setting": "HepG2", "value": "inactive"}, {"measurement": "growth inhibition call", "setting": "S. aureus RN4220", "value": "inactive"}]}, {"smiles": "O=C(C[C@@H]1C[C@@H]2c3cc(NC(=O)C4CCOCC4)ccc3O[C@@H]2[C@H](CO)O1)NCCN1CCCCC1", "values": [{"measurement": "cytotoxicity call", "setting": "HSkMC", "value": "inactive"}, {"measurement": "cytotoxicity call", "setting": "HepG2", "value": "inactive"}, {"measurement": "growth inhibition call", "setting": "S. aureus RN4220", "value": "inactive"}]}, {"smiles": "COc1ccc(S(=O)(=O)Nc2ccc3c(c2)CC(=O)N([C@@H](C)CO)C[C@@H](C)[C@@H](CN(C)S(=O)(=O)c2ccc(F)cc2)O3)cc1", "values": [{"measurement": "cytotoxicity call", "setting": "HSkMC", "value": "inactive"}, {"measurement": "cytotoxicity call", "setting": "HepG2", "value": "inactive"}, {"measurement": "growth inhibition call", "setting": "S. aureus RN4220", "value": "inactive"}]}, {"smiles": "C[C@@H]1CN([C@@H](C)CO)C(=O)c2cc(NS(=O)(=O)c3ccc(Cl)cc3)ccc2O[C@@H](C)CCCCO[C@H]1CN(C)Cc1ccncc1", "values": [{"measurement": "cytotoxicity call", "setting": "HSkMC", "value": "inactive"}, {"measurement": "cytotoxicity call", "setting": "HepG2", "value": "inactive"}, {"measurement": "growth inhibition call", "setting": "S. aureus RN4220", "value": "inactive"}]}, {"smiles": "CN1CCN(C(=O)C[C@H]2C=C[C@H](NC(=O)Cc3ccccn3)[C@H](CO)O2)CC1", "values": [{"measurement": "cytotoxicity call", "setting": "HSkMC", "value": "inactive"}, {"measurement": "cytotoxicity call", "setting": "HepG2", "value": "inactive"}, {"measurement": "growth inhibition call", "setting": "S. aureus RN4220", "value": "inactive"}]}, {"smiles": "C[C@H]1CN([C@@H](C)CO)C(=O)c2cc(NC(=O)Nc3ccccc3)ccc2O[C@H]1CN(C)Cc1ccc(Oc2ccccc2)cc1", "values": [{"measurement": "cytotoxicity call", "setting": "HSkMC", "value": "inactive"}, {"measurement": "cytotoxicity call", "setting": "HepG2", "value": "inactive"}, {"measurement": "growth inhibition call", "setting": "S. aureus RN4220", "value": "inactive"}]}, {"smiles": "COc1ccc(NC(=O)Nc2cccc3c2O[C@H](CN(C)Cc2ccc(-c4ccccc4)cc2)[C@@H](C)CN([C@H](C)CO)C3=O)cc1", "values": [{"measurement": "cytotoxicity call", "setting": "HSkMC", "value": "inactive"}, {"measurement": "cytotoxicity call", "setting": "HepG2", "value": "inactive"}, {"measurement": "growth inhibition call", "setting": "S. aureus RN4220", "value": "inactive"}]}, {"smiles": "C[C@H](CO)N1C[C@H](C)[C@H](CN(C)C(=O)Nc2ccc(C(F)(F)F)cc2)Oc2ccc(NC(=O)Nc3cccc4ccccc34)cc2C1=O", "values": [{"measurement": "cytotoxicity call", "setting": "HSkMC", "value": "inactive"}, {"measurement": "cytotoxicity call", "setting": "HepG2", "value": "inactive"}, {"measurement": "growth inhibition call", "setting": "S. aureus RN4220", "value": "inactive"}]}, {"smiles": "COc1ccccc1-c1cnc2c(c1)C(=O)N([C@H](C)CO)C[C@@H](C)[C@H](CN(C)C(=O)c1ccncc1)O2", "values": [{"measurement": "cytotoxicity call", "setting": "HSkMC", "value": "inactive"}, {"measurement": "cytotoxicity call", "setting": "HepG2", "value": "inactive"}, {"measurement": "growth inhibition call", "setting": "S. aureus RN4220", "value": "inactive"}]}, {"smiles": "COc1ccc(NC(=O)Nc2ccc3c(c2)C(=O)N([C@H](C)CO)C[C@H](C)[C@@H](CN(C)S(=O)(=O)c2ccc(Cl)cc2)OCCCC[C@H](C)O3)cc1", "values": [{"measurement": "cytotoxicity call", "setting": "HSkMC", "value": "inactive"}, {"measurement": "cytotoxicity call", "setting": "HepG2", "value": "inactive"}, {"measurement": "growth inhibition call", "setting": "S. aureus RN4220", "value": "inactive"}]}, {"smiles": "O=C(Cc1n[nH]c(=O)[nH]1)NCc1n[nH]c2c1CCCCC2", "values": [{"measurement": "cytotoxicity call", "setting": "HSkMC", "value": "inactive"}, {"measurement": "cytotoxicity call", "setting": "HepG2", "value": "inactive"}, {"measurement": "growth inhibition call", "setting": "S. aureus RN4220", "value": "inactive"}]}, {"smiles": "COc1ccc(Cc2nn[nH]n2)cc1", "values": [{"measurement": "cytotoxicity call", "setting": "HSkMC", "value": "inactive"}, {"measurement": "cytotoxicity call", "setting": "HepG2", "value": "inactive"}, {"measurement": "growth inhibition call", "setting": "S. aureus RN4220", "value": "inactive"}]}, {"smiles": "COc1cccc(S(=O)(=O)N[C@H]2CC[C@@H](CCn3cc(-c4ccccc4OC)nn3)O[C@H]2CO)c1", "values": [{"measurement": "cytotoxicity call", "setting": "HSkMC", "value": "inactive"}, {"measurement": "cytotoxicity call", "setting": "HepG2", "value": "inactive"}, {"measurement": "growth inhibition call", "setting": "S. aureus RN4220", "value": "inactive"}]}, {"smiles": "Cc1noc(C)c1S(=O)(=O)Nc1ccc2c(c1)C(=O)N([C@H](C)CO)C[C@H](C)[C@H](CN(C)Cc1ccc(C(=O)Nc3ccccc3N)cc1)OCCCC[C@@H](C)O2", "values": [{"measurement": "cytotoxicity call", "setting": "HSkMC", "value": "inactive"}, {"measurement": "cytotoxicity call", "setting": "HepG2", "value": "inactive"}, {"measurement": "growth inhibition call", "setting": "S. aureus RN4220", "value": "inactive"}]}, {"smiles": "C[C@@H]1CCCCO[C@@H](CN(C)C(=O)Nc2ccc(C(F)(F)F)cc2)[C@@H](C)CN([C@H](C)CO)C(=O)c2cc(NC(=O)c3ccccc3)ccc2O1", "values": [{"measurement": "cytotoxicity call", "setting": "HSkMC", "value": "inactive"}, {"measurement": "cytotoxicity call", "setting": "HepG2", "value": "inactive"}, {"measurement": "growth inhibition call", "setting": "S. aureus RN4220", "value": "inactive"}]}, {"smiles": "CCOC(=O)N(C)C[C@H]1OCc2cnnn2CCCC(=O)N([C@@H](C)CO)C[C@@H]1C", "values": [{"measurement": "cytotoxicity call", "setting": "HSkMC (human skeletal muscle cells)", "value": "inactive"}, {"measurement": "cytotoxicity call", "setting": "HepG2", "value": "inactive"}, {"measurement": "growth inhibition call", "setting": "S. aureus RN4220", "value": "inactive"}]}]}
